Data from article PMC7826336, “Kallikrein directly interacts with and activates Factor IX, resulting in thrombin generation and fibrin formation independent of Factor XI” (Proceedings of the National Academy of Sciences of the …, 2021).

Biological target: T1, kallikrein (PKa) (UniProt P03952 20-390; P03952 391-638)
T1 construct: plasma kallikrein heavy chain (four apple domains), cut product of prekallikrein; plasma kallikrein light chain (protease domain), cut product of prekallikrein; Amine-coupled to the SPR chip; also called plasma kallikrein; source: bought: Enzyme Research Laboratories
T1 sequence (P03952 20-390, chain 1 of 2): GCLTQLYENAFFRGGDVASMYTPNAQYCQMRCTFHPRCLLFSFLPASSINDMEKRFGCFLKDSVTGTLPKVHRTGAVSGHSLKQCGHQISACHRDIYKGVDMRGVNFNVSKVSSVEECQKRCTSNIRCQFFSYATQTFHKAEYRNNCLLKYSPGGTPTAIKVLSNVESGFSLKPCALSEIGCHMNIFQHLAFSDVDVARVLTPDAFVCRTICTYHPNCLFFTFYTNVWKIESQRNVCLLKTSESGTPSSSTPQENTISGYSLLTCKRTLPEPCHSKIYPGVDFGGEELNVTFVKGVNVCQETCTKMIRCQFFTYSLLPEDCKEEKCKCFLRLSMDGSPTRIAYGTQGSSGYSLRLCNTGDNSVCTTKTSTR
T1 sequence (P03952 391-638, chain 2 of 2): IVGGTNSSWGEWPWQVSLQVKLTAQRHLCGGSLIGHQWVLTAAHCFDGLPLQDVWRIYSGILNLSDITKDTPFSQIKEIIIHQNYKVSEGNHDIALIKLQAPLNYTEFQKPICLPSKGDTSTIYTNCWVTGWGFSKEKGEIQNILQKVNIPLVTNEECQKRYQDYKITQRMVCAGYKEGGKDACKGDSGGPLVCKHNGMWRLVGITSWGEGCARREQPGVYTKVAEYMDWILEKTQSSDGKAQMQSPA
Assay: SPR; Pioneer biosensor, COOHV chip; PMSF-treated PK (FC-1) or PKa (FC-3) immobilised by amine coupling; analytes diluted to 250 nM, OneStep gradient injection, 30 uL/min, dissociation 600 s; 22 °C; 10 mM Hepes, 140 mM NaCl, 1.5 mM CaCl2, 40 uM ZnCl2 pH 7.4; simple ka/kd 1 or 2 binding site model
Conditions: both partners purified

Kd: 1.7 nM
koff: 0.000228 s⁻¹
kon: 134000 M⁻¹ s⁻¹
B1: Factor IX (FIX) (natural protein)
chain: not shown
notes: coagulation factor IX, zymogen; also called zymogen FIX; source: bought: Haematologic Industries
